Measured values published in paper PMC4336329 (PLoS ONE, 2015).
The campaign covered roughly 310,000 compounds. About 2,200 (0.71%) showed an effect of 50% or more. The effect is printed as a negative number. Some of the results follow.

target: human ether-à-go-go-related gene (hERG) potassium channel (human, UniProt Q12809); test: primary screen, population patch clamp on CHO cells stably expressing hERG
Sequence (Q12809 whole entry, looked up): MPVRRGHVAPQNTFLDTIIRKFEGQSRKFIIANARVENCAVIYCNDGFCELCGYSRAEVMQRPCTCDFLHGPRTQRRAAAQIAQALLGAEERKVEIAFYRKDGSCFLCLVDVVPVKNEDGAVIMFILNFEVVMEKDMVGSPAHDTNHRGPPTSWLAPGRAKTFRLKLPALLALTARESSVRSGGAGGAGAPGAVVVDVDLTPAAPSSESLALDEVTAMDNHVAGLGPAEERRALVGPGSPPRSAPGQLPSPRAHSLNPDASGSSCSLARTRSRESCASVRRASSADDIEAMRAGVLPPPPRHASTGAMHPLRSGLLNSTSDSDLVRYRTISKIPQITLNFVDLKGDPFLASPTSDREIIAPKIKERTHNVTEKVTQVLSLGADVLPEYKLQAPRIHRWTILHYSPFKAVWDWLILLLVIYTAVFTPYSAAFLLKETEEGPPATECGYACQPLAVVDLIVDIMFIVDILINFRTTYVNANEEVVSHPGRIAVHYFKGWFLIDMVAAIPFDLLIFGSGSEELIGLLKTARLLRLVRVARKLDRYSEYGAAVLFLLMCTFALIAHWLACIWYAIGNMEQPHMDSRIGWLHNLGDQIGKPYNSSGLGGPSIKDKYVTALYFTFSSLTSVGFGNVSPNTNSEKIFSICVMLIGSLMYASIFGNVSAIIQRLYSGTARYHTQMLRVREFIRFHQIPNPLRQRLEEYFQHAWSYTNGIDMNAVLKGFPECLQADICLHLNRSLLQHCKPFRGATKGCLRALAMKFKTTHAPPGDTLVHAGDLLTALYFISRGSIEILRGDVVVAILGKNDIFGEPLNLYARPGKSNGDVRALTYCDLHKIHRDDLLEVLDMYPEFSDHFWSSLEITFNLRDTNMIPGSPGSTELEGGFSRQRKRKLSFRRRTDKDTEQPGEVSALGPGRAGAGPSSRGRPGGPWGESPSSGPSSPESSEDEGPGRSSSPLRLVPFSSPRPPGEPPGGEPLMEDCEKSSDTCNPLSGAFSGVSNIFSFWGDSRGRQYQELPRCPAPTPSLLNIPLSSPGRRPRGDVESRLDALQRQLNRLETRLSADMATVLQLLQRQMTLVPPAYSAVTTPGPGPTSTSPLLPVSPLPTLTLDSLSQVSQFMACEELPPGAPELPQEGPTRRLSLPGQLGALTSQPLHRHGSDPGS

Row | Compound | hERG current change (%, negative = inhibition) at 1uM [%]
1 | CCCC12CN3CCN(CC(C3)/C1=N\NC(=O)c1ccc(F)cc1)C2 | 5.76
2 | Cc1ccc(-c2nn(-c3ccccc3)cc2/C=N/NC(=O)c2ccc3c(c2)OCO3)cc1 | 10.7
3 | COc1ccc(OC)c(-n2cnc3cc(C(=O)NCCCN4CCOCC4)ccc32)c1 | 2.6
4 | Cl.OCCN1CCN(CC(O)COc2ccc(Cl)cc2)CC1 (centres unmarked) | -0.466
5 | COc1ccccc1NC(=O)/C(=N/OCc1ccc(C#N)cc1)C(C)=O | -2.69
6 | CC1(C)C(=O)NCCN1C(=O)CC1C(=O)NCCN1CC(c1ccccc1)c1ccccc1 (centres unmarked) | 10.2
7 | CC(C)(C)n1ncc2c(=O)n(CC(=O)c3ccccc3)cnc21 | 10.2
8 | Cc1csc(NC(=O)CN2C(=O)C3CC=CCC3C2=O)n1 (centres unmarked) | -1.93
9 | N#C/C(C(N)=O)=c1/ccc2c(c1)N1C3=C(CCCC3)CC3CCCCC31N=2 (centres unmarked) | 7.02
10 | Cc1cc(C)c(OCC(=O)Nc2nc(-c3ccccn3)cs2)c(C)c1 | 8.27
11 | Cc1ccc(NC(=O)N2CCN(c3ncccc3C(F)(F)F)CC2)cc1 | -2.37
12 | COc1ccc(C(=O)Nc2ccc3oc(-c4cccc(F)c4)nc3c2)cc1OC | 4.3
13 | CC(C)N1CC(C(=O)Nc2ccc(Br)c(Cl)c2)CC1=O (centres unmarked) | 0.379
14 | COC(=O)c1cccc(NC(=O)CSc2nnc(C)n2C)c1 | 21.9
15 | COc1ccc(NC(=O)Cn2c(=O)oc3cc(S(=O)(=O)N4CCCC4)ccc32)c(OC)c1 | 8.81
16 | O=C(Nc1cccc2c1CCCC2)c1cccc(F)c1 | 17.4
17 | Cc1ccc2nc(-c3ccccc3)c(CN3CCOCC3)n2c1 | 4.34
18 | CCOC(=O)C1(Cc2ccc(OC)cc2)CCN(C(=O)c2ccc3[nH]ccc3c2)CC1 | -3.65
19 | CCC(=O)N1CCc2cc(S(=O)(=O)CCC(=O)Nc3cccc(C)n3)ccc21 | 0.361

Row | Compound | hERG current change (%, negative = inhibition) at 1uM [%]
20 | Cc1cccc(NC(=O)C2C3CCC4C(CCC32)C4(Cl)Cl)c1 (centres unmarked) | -3.78
21 | COc1ccc(-c2nn(CCC#N)cc2C(=O)NCc2ccccc2)cc1OC | -11.1
22 | CC1=CC(C)(C)n2c(O)c(N=NC(N)=S)c3cc(C)cc1c32 | 9.79
23 | CC(C)(C)c1ccc(CN2C(=O)CSC2=O)cc1 | 14
24 | O=S1(=O)c2cccc3cccc(c23)N1CCBr | 6.6
25 | O=C(COC(=O)C1CCN(c2ccc(C(F)(F)F)cn2)CC1)c1ccc(F)cc1 | 19.7
26 | O=C(CCN1C(=O)COc2ccccc21)NCCCN1CCc2ccccc2C1 | -1.81
27 | CC1CCN(c2ccc3c(c2)S(=O)(=O)c2cccc(C(=O)NC4CCCCC4)c2C3=O)CC1 | 15.7
28 | CCOc1ccc(CCNC(=O)COC(=O)c2nc3nc(C)cc(C)n3n2)cc1OCC | -2.82
29 | COc1ccc(C(C(=O)NC2CCCCC2)N(C(=O)CCCC(=O)Nc2ccccn2)c2ccc3c(c2)OCCO3)cc1 (centres unmarked) | 5.56
30 | O=C(/C=C/c1ccc(OC(F)F)cc1)OCC(=O)N1CCN(C(=O)c2ccco2)CC1 | -37.4
31 | COc1ccc(Cl)cc1C(=O)NNC(=O)c1ccncc1 | 12.3
32 | COC(=O)c1sccc1NC(=O)Nc1ccc(C)c(C)c1 | 12.3
33 | COc1ccc(-n2ccc(-c3nn(-c4cccc(C(F)(F)F)c4)ccc3=O)n2)cc1 | -8.13
34 | CCOC(=O)c1ccc(NCC(O)COc2ccccc2)cc1 (centres unmarked) | -7.11
35 | COC(=O)c1ccccc1NC(=O)NCCc1ccccc1OC.Cl | 5.9
36 | COc1ccc(-c2cc(N3C(=O)Nc4ccccc4N3O)n[nH]2)c(OC)c1 | -4.85
37 | O=C(NCc1ccccc1)c1onc(CSc2ccc(F)cc2)c1C(=O)NCCCN1CCOCC1 | -54.9
38 | COc1ccc(C2CC(c3c(Cl)cccc3Cl)n3nc(N)nc3N2)cc1 (centres unmarked) | 8.39

Row | Compound | hERG current change (%, negative = inhibition) at 1uM [%]
39 | O=c1[nH]c2ccccc2c2cn(-c3ccccc3)nc12 | 14.7
40 | COc1ccc(NC2CCCN(C(=O)C3=NN(C)C(=O)CC3)C2)cc1OC (centres unmarked) | 30.5
41 | O=Cc1ccc(N2N=C(c3ccccc3)CC2c2ccccc2)cc1 (centres unmarked) | 20.4
42 | FC(F)(F)c1cccc(NC(=S)Nc2ccc(Cl)c(Cl)c2)c1 | 19.7
43 | COc1ccccc1CNC(=O)CSc1nc(C)cs1 | 6.97
44 | Cc1cc(SCc2ccccc2Cl)nc(=O)[nH]1 | 16.5
45 | COC1OC(COC(=O)c2ccccc2)C(OC(=O)c2ccccc2)C1OC(=O)c1ccccc1 (centres unmarked) | 14.7
46 | Cc1nn(Cc2noc(C(=O)NCc3ccc4c(c3)OCO4)n2)c(C)c1Br | 1.08
47 | COc1ccc(C(CNC(=O)CNC(=O)c2ccccc2)N2CCCC2)cc1 (centres unmarked) | -3.77
48 | CCOC(=O)c1[nH]c2ccc(OC)cc2c1N=CN(C)C | 10.3
49 | O=C(CCCc1ccccc1)NCc1cccnc1 | 10.7
50 | Cc1cc(C)c(NC(=O)C(C)Sc2nc3ccc(N4C(=O)c5ccccc5C4=O)cc3s2)c(C)c1 (centres unmarked) | 6.67
51 | O=C(Nc1cc2c3c(c1)CC(=O)N3CCC2)c1ccco1 | -15
52 | CCOc1ccc(OCCSc2nc3ccccc3[nH]2)cc1 | 3.95
53 | CC1C/C(=C/c2ccccn2)C(=O)/C(=C/c2ccccn2)C1 (centres unmarked) | -0.0207
54 | O=C(/C=C/c1ccccc1)Nc1cccc(C(=O)O)c1 | 16.9
55 | C=CCC(CC)C(=O)NC(=O)N1CCCc2ccccc21 (centres unmarked) | 8.52
56 | CN1c2ccsc2/C(=N/Nc2ccccc2)CS1(=O)=O | 10.5
